From PubChem BioAssay AID1159614 (National Center for Advancing Translational Sciences (NCATS), 2016)
Among all 45,000 compounds or so, about 65 (0.1%) were called active. Calls come from the whole dose curve; as a rule, active = well fitted activation curve with a large enough effect; inconclusive = small, poorly fitted or top-dose-only effect; inactive = no such curve, though single readings can be large or run the other way. This is one part of the list.

target: Galactocerebrosidase (Homo sapiens) (UniProt P54803); test: A Novel Cell-Based Assay to Identify Small Molecules for B -Galactocerebrosidase; conditions: 145M-Twi-hGALC-G270D cells (Twitcher mouse brain line with human GALC G270D), HMU-beta-Gal fluorescence, 48 h; series mostly up to 57.5 µM; activation: at the top concentration; note: 0% is about no effect; nearly all actives have a fitted effect of over 65% in size
Chain of UniProt P54803 (P54803 whole entry, looked up): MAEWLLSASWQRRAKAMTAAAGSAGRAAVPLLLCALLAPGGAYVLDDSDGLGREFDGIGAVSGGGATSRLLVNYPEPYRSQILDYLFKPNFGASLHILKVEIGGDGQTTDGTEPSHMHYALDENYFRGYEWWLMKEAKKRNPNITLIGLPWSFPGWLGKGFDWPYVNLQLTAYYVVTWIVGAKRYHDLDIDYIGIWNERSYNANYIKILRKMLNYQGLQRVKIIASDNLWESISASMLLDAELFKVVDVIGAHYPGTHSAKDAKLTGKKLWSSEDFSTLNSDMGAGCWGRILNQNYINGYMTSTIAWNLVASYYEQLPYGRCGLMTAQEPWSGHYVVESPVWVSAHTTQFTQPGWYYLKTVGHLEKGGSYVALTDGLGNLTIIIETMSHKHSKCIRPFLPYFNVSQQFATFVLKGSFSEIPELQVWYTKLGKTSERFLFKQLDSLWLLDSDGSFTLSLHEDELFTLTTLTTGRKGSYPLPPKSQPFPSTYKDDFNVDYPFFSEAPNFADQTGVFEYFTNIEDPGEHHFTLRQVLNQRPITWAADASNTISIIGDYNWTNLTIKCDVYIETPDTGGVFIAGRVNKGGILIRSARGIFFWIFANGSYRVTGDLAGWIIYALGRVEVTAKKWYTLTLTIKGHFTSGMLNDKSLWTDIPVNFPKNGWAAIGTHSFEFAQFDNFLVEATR
Outline: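 Brain-derived Twitcher mouse 145M-Twi cells stably expressing human GALC-G270D or wild-type GALC, treated live, then residual GALC activity read by fluorescence of HMU-b-Gal substrate (0.1 mM final) in citrate-phosphate buffer pH 5.2 with sodium taurocholate. Signal increase indicates enhancement.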

activation, inactive:
COc1ccccc1CNS(=O)(=O)c1ccc2c(c1)CC(C)N2C(=O)C1CCC1 (stereo not given) -7.13%
CC(C)(C)c1nnc(NS(=O)(=O)c2ccc(N)cc2)s1 -13.6%
CC1(C(=O)NC2CCCCC2)Cc2ccccc2C(=O)N1Cc1ccc(F)cc1 (stereo not given) -0.16%
Cc1ccc(S(=O)(=O)c2nc(-c3ccco3)oc2SCc2ccc(F)cc2)cc1 -13.7%
Cc1ccc(NC(=O)C2CCCN2S(=O)(=O)c2ccc3c(c2)C(C)(C)C(=O)N3C)cc1 (stereo not given) -6.2%
CCOc1ccc(NC(=O)c2cc(C)nc3c2c(C)nn3-c2cccc(F)c2)cc1 -12.9%
COc1ccc(-c2cc(C)no2)cc1S(=O)(=O)NC1CCC(C)CC1 (stereo not given) -22.2%
Cn1cnc(S(=O)(=O)N2CCCC(C(=O)NCc3ccccc3)C2)c1 (stereo not given) -6.19%
Cc1cccc(N2CCN(C(=O)Cn3ncc4c([nH]c5ccccc54)c3=O)CC2C)c1 (stereo not given) -8.54%
COc1cccc(NC(=O)c2c(N3CCCC3=O)c3cc(C)ccc3n2C)c1 -33.4%
CCOc1ccc(CNC(=O)c2cnc3sc(N(CC)CC)nn3c2=O)cc1 -14.8%
O=C(NCCS(=O)(=O)N1CCN(c2ccccc2F)CC1)C1CC(=O)N(c2ccccc2)C1 (stereo not given) -4.7%
Nc1nc(F)nc2c1ncn2[C@@H]1O[C@H](CO)[C@@H](O)[C@@H]1O -6.73%
O=C(CSc1nc2ccccc2nc1Cc1ccccc1)Nc1ccccc1C(F)(F)F -2.72%
COc1ccc(S(=O)(=O)NCCc2sc3nc(-c4ccc(C)cc4)nn3c2C)cc1F -3.2%
Cc1c(OCC(F)(F)F)ccnc1CS(=O)c1nc2ccccc2[nH]1 (stereo not given) -19.4%
CCOc1ccc(-n2ccnc2SCC(=O)Nc2ccc3c(c2)OCO3)cc1 -14.2%
CCCCN(Cc1ccccc1)S(=O)(=O)c1cc(Br)cc2c1N(C(C)=O)CC2 -11.2%
CCc1ccccc1NC(=O)C(CC)Oc1ccccc1-c1nnc(-c2ccccc2)o1 (stereo not given) 0.32%
CCOc1ccc(CCNC(=O)c2cccc(-n3c(C)nc4cccnc43)c2C)cc1 -19.3%
CCOC(=O)CCCN1C(=O)CCn2nc(-c3cn(C)c4ccccc34)cc21 -8.66%
COc1ccc(-c2nc3c(c(SCC(=O)Nc4ccccc4OC)n2)Cc2cccc(C)c2O3)cc1 -7.21%
CCCSc1ncc(Cl)c(C(=O)Nc2scc(-c3ccc(C)cc3)c2C(=O)OCC)n1 -10.4%
CCCCC(=O)Nc1c(C(=O)N2CCN(c3ccccc3)CC2)oc2ccccc12 -13.8%
CCOc1ccc(CNC(=O)c2cccn2-c2nnc(N3CCCCC3)s2)cc1OC -0.442%
CCOCCCNC(=O)c1cc(=O)[nH]c2ccc(S(=O)(=O)N3CCCC3)cc12 -14%
CCc1cccc(C)c1NC(=O)C1CCN(S(=O)(=O)c2cccc3nonc23)CC1 -10.1%
COc1ccc(C(=O)Nc2c(C(=O)c3ccc(F)cc3)oc3ccccc23)cc1 -9.84%
O=C1CC(c2ccc(Cl)cc2)c2cc3c(cc2N1)OCCO3 (stereo not given) -9.63%
Cc1ccc(-n2c(=O)c3oc4ccccc4c3n(CC(=O)Nc3ccc(F)c(Cl)c3)c2=O)cc1C -5.15%
N#Cc1ccccc1NC(=O)C(=O)NCC(c1ccc2c(c1)OCO2)N1CCOCC1 (stereo not given) -10.8%
O=C(CS(=O)(=O)c1cccc2nsnc12)Nc1ccc(F)cc1F -9.91%
CCC(C)NC(=O)Cc1ccc(NC(=O)N2CCCCc3ccccc32)cc1 (stereo not given) 0.599%
Cc1cc(C)cc(OCc2cc(=O)n3c4c(sc3n2)CCCC4)c1 -2.21%
CCCCN(C)C(=O)c1ccc2c(c1)N(Cc1ccc(F)cc1)C(=O)c1ccccc1S2(=O)=O -26.8%
O=C(Nc1ccccc1F)C1CCN(S(=O)(=O)c2ccc3c(c2)CCCN3C(=O)C2CCC2)CC1 23.9%
Cc1ccc(-c2nc(CS(=O)CC(=O)N3CCN(c4ccc(F)cc4)CC3)c(C)o2)cc1 (stereo not given) -9.57%
CC(C)CCNC(=O)c1c2c(nc3ccccc13)C(=O)N(C1CCCCC1)C2 -6.3%
CC(=O)N1CCOc2cc(S(=O)(=O)Nc3c(C)cccc3C(C)C)c(Cl)cc21 -22.2%
COC(=O)c1ccccc1NC(=O)N1CCC(n2c(C)nc3cccnc32)CC1 -4.97%
COCCNC(=O)c1c(NC(=O)c2cc(=O)c3cc(Cl)ccc3o2)sc2c1CCCC2 -17.7%
COc1cc(OC)c(N(C)C(=O)Cn2ncc3c(=O)oc4ccccc4c32)cc1Cl -24.2%
Cc1ccc(CN2C(=O)N(c3ccccc3)C(=O)C2CC(=O)Nc2ccccc2)cc1 (stereo not given) -11.9%
O=C(CN1C(=O)COc2ccc(S(=O)(=O)N3CCCCCC3)cc21)NCCc1ccccc1 -6.67%
Cc1ccc(NC(=O)N2CCN(C)c3ncccc32)cc1C -3.94%
Cc1ccc(CNC(=O)c2cc(=O)c3cc(C)cc(C)c3o2)cc1 -7.85%
CC(=O)N1CCN(c2csc3ccc(Br)cc3c2=O)CC1 -11.6%
CCC(C)NC(=O)CSc1nc(-c2ccc(F)cc2)cc(C(F)(F)F)n1 (stereo not given) -9.57%
COC(=O)c1ccccc1NC(=O)c1cnc2sc(N3CCOCC3)nn2c1=O -12.9%
COc1ccccc1NC(=O)Cn1nnc(C(=O)Nc2ccccc2Br)c1N -11.6%
CCc1cccc(C)c1NC(=O)Cn1cc2c(n1)CCCCC2 -14.8%
Cc1cccc(NS(=O)(=O)c2ccc3c(c2)OCC(C(=O)N2CCCC2)O3)c1C (stereo not given) -5.61%
COc1cccc(C(=O)Nc2cccc(C(=O)OCc3cc(=O)n4c5c(sc4n3)CCCC5)c2)c1 -4.68%
CCc1nn(CCCC(=O)NCc2cc(Br)ccc2OC)c(=O)c2cc3occc3n12 -11.6%
CCOc1ccc(NC(=O)c2cc3cc4cc(OC)ccc4nc3s2)cc1 -8.4%
COc1ccccc1-n1c(=O)c2c3c(sc2n(Cc2ccccc2F)c1=O)CN(C(C)=O)CC3 -24.1%
Cc1ccc(S(=O)(=O)c2cn(CC(=O)Nc3ccc4c(c3)OCO4)c3ccccc3c2=O)cc1C -18.6%
O=C(NCCS(=O)(=O)N1CCN(c2ccc(F)cc2)CC1)C1CC(=O)N(c2ccccc2)C1 (stereo not given) -16.5%
COc1ccc2cc(CNc3ccc(C)cc3)c(=O)n(CC(=O)Nc3cccc(C(F)(F)F)c3)c2c1 6.25%
CCOC(=O)CSc1nc2c(sc3cccc(F)c32)c(=O)n1Cc1ccc(OC)cc1 -1.09%
O=c1c2cccnc2n(Cc2cccc(F)c2)c(=O)n1Cc1ccccc1Cl -2.98%
Cc1ccc(-c2nnc(Nc3ccc(O)cc3)c3ccccc23)cc1S(=O)(=O)N1CCCCC1 -34.9%
CC(C)c1cc(-c2nc(-c3ccc(Br)cc3)no2)n[nH]1 -17.4%
COc1ccc2[nH]c(=O)c(CN(C(=O)c3cccc(Cl)c3)c3cccc(C)c3)cc2c1 -15.2%
CCN1CCN(c2ncc3c(n2)CCN(Cc2ccc(OC)c(OC)c2)C3)CC1 -11.5%
CCCN1CCN(CCNC(=O)Nc2ccccc2OCC)CC1 -5.58%
CCCN(Cc1cccs1)C(=O)Nc1ccc(Br)cc1F -19.6%
Cc1cc2c(n1-c1ccc(C(=O)NCCc3ccccc3)cc1)CCC(C)C2 (stereo not given) -1.41%
COc1cc(C(CC(=O)Nc2cc(C)ccn2)N2Cc3ccccc3C2=O)cc(OC)c1OC (stereo not given) -21.9%
CCOC(=O)c1c(C)[nH]c(C)c1S(=O)(=O)NCC(=O)NCc1ccccc1Cl -12.2%
COc1cccc(CNC(=O)CCCCCn2c(=O)[nH]c3cc(OC)c(OC)cc3c2=O)c1 -14.3%
CCN1C(=O)c2ccccc2S(=O)c2ccc(C(=O)N3CCN(c4ccccc4OC)CC3)cc21 (stereo not given) -0.253%
CCOc1ccccc1C(=O)Nc1ccc(S(=O)(=O)Nc2ncccn2)cc1 -28.4%
Cc1cccc(Cc2c(C)nc3nc(SCc4ccccc4F)nn3c2C)c1 13.4%
CC(C)=CCC/C(C)=C/CC/C(C)=C/C(=O)OCC(=O)[C@@]1(O)CC[C@H]2[C@@H]3CCC4=CC(=O)C=C[C@]4(C)[C@H]3[C@@H](O)C[C@@]21C -10.3%
COc1ccccc1NC(=O)CSc1oc(-c2ccccc2)nc1S(=O)(=O)c1ccccc1 -22.8%
COc1ccc2c(c1)c1c(c(=O)n(-c3cccc(C)c3)c(=O)n1CC(=O)NCC1CCCO1)n2C (stereo not given) 0.3%
COc1cc(-c2oc3ccc(C)cc3c(=O)c2O)cc(OC)c1OC -19.1%
Cc1cc2c(n1-c1ccc(C(=O)NCc3ccc(OC(C)C)cc3)cc1)CCCC2 15.2%
COc1ccccc1CNC(=O)CCCn1c(=O)c2ccccc2n(Cc2ccccc2C#N)c1=O 0.223%
O=C(Nc1ccc(-c2nc3cc(NC(=O)c4ccc(Cl)cc4)ccc3o2)cc1)c1ccc(Cl)cc1 -11.7%
CCCN(CCC)C(=O)C1CCCN(S(=O)(=O)c2cc(Br)cc3c2N(C(=O)CC)CC3)C1 (stereo not given) -23.2%
COc1ccc(-c2cc(C(F)(F)F)n3nc(C(=O)Nc4sc5c(c4C(=O)OC(C)C)CCC(C)C5)cc3n2)cc1 (stereo not given) -11%
CCc1ccc(C(=O)NC2=NC(c3cc(OC)ccc3OC)CC(=O)N2)cc1 (stereo not given) -8.82%
COC(=O)c1ccc(-c2nc(-c3ccc(OC)c(OC)c3)no2)cc1 12.8%
CC(=O)Nc1ccc(NC(=O)C(c2ccccc2)N2Cc3ccccc3C2=O)cc1 (stereo not given) -22.6%
Cc1ccc(-c2nn(C)c(=O)c3ccccc23)cc1S(=O)(=O)NCCCN(C)C -19.3%
Cc1ccc(CCNC(=O)CCn2nc(-c3ccc(Cl)cc3)ccc2=O)cc1 1.86%
O=S(=O)(c1ccc(Br)cc1)c1nnn2c1nc(NCCc1ccccc1)c1sccc12 -15.1%
Cc1ccc(-c2onc(C)c2C)cc1S(=O)(=O)Nc1cccc(Cl)c1C -9.01%
COc1ccc(N2C(=O)CCSC23C(=O)N(Cc2ccc(F)cc2)c2ccccc23)cc1 (stereo not given) -6.64%
Cc1nc2ccc(S(=O)(=O)NC(C(=O)N3CCN(c4cccc(Cl)c4)CC3)C(C)C)cc2s1 (stereo not given) -8.94%
CCc1ccc(-n2nc(CO)c(C(=O)NCc3cccnc3)n2)cc1 -10.8%
Cc1cc(C)cc(NC(=O)CCc2c(C)nc3c(c2C)c(=O)n(C)c(=O)n3C)c1 -0.73%
O=C(c1ccc2c(c1)N(Cc1ccc(Cl)cc1)C(=O)c1ccccc1S2(=O)=O)N1CCN(Cc2ccccc2)CC1 -2.66%
